# Experimental data from PubChem BioAssay AID1347043 (National Center for Advancing Translational Sciences (NCATS), 2019).
# The whole screen tested about 76,000 compounds, of which about 1,900 (2.5%) were called active. The inconclusive results got no clear call from the source; some entries with a clear call stand among them for comparison. Calls come from the whole dose curve; as a rule, active = well fitted inhibition curve with a large enough effect; inconclusive = small, poorly fitted or top-dose-only effect; inactive = flat fitted curve, though single readings scatter. Potencies of inconclusive entries are doubtful fits and often do not repeat.
# Target: Luciferin 4-monooxygenase (Photinus pyralis) (UniProt P08659)
# Sequence of UniProt P08659 (P08659 whole entry, looked up): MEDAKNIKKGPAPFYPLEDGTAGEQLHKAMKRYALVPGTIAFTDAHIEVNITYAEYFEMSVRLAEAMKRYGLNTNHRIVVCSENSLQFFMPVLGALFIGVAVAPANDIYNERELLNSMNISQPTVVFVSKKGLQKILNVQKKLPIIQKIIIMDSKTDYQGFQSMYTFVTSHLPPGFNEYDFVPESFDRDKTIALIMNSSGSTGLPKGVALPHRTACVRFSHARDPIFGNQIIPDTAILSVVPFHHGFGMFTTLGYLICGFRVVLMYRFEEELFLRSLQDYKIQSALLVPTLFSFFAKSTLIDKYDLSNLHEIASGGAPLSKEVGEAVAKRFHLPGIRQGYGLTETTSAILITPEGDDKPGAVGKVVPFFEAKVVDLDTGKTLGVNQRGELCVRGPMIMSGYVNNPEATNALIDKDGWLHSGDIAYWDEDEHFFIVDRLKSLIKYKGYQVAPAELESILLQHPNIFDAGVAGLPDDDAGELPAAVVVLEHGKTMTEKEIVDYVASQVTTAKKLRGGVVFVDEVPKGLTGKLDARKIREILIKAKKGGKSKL
# Assay: Firefly luciferase inhibition profiling of diverse chemical library using quantitative high-throughput screening; note: nearly all actives have a fitted effect of over 65% in size
# Settings: purified P. pyralis luciferase, luminescence, biochemical; activity change, negative = inhibition: at 115 µM (top of the series) unless noted
# Procedure, shortened: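 Inhibitors were tested against purified firefly luciferase in a biochemical, low-substrate format (both substrates at 10uM) and luminescence measured with a CCD imager.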
# % is set by controls: 0 for no effect and ±100 for the full control effect; potency is the fitted concentration of half-maximal effect; tags give direction and shape of the fitted curve.
Structure (SMILES),Potency,"activity change, negative = inhibition"
COc1ccc(Nc2nccc3c(=O)cc(-c4ccccn4)oc23)cc1OC,"inconclusive: 63.1 µM [inhibitor, full curve]",–
COc1cccc(-c2cccc(CN3CCCC(C)(NC(C)=O)C3)c2)c1 (centres undefined),"inconclusive: 70.8 µM [inhibitor, partial curve]",–
Cc1ccc(S(=O)(=O)N2CCC(n3cnnc3-c3ccccc3)CC2)cc1C,–,inactive: 3.69%
COc1ccc(-c2cn3c(n2)CO[C@@H](CNC(=O)C(C)(C)C)C3)cc1,"inconclusive: 56.2 µM [inhibitor, partial curve]",–
COc1cccc(-c2ccc3ncn(-c4ccc(F)cc4F)c(=O)c3n2)c1,"inconclusive: 70.8 µM [inhibitor, partial curve]",–
Cc1ccc(NC(=O)N2CCc3c(C(=O)NC(C)C)cccc32)cc1,active: 0.316 µM,–
COC(=O)C1=CN(CC(=O)N(C)c2ccccc2)S(=O)(=O)N=C1C,–,inactive: 4.24%
CC(=O)NCCC1CCN(C(=O)Nc2ccc(C)cc2)CC1,active: 8.91 µM,–
CCC(CC)C(=O)N1CCC(Oc2nccnc2N(C)C)C1 (centres undefined),active: 35.5 µM,–
O=C(Nc1cnc(-c2ccccc2)nc1)c1ccccc1C(F)(F)F,"inconclusive: 7.08 µM [inhibitor, full curve]",–
CC(C)Oc1cccc(-c2ccc(C(=O)N(C)C)cc2)c1,"inconclusive: 35.5 µM [inhibitor, partial curve]",–
Cc1onc(C(=O)NCc2ccc3[nH]c(-c4ccc(F)cc4)c(C)c3c2)c1CO,"inconclusive: 39.8 µM [inhibitor, partial curve, poor fit]",–
COCCOC1CCN(S(=O)(=O)c2ccc(F)cc2)CC1,–,inactive: -10.5%
CN(C)C(=O)c1cc(-c2ccc(Cl)cc2)cn1C,"inconclusive: 44.7 µM [inhibitor, partial curve]",–
O=C(NCc1ccccc1F)c1ccc2c(c1)CN(Cc1cncs1)CCO2,–,inactive: 3.52%
CSc1ccc(NC(=O)N2CCc3nc4cc(-c5ccccc5)[nH]n4c(=O)c3C2)cc1,"inconclusive: 35.5 µM [inhibitor, partial curve]",–
Cc1ccc(C(=O)N[C@H]2CO[C@H]3[C@@H]2OC[C@H]3OC(=O)Nc2ccccc2)cc1,"inconclusive: 56.2 µM [inhibitor, partial curve]",–
Cc1noc([C@@H]2CC(F)(F)CN2C(=O)c2ccc3c(c2)OCO3)n1,"inconclusive: 56.2 µM [inhibitor, partial curve]",–
c1ccc2oc([C@H]3CCN(C4CCOCC4)C3)nc2c1,active: 79.4 µM,–
COc1ccc(N2C(=O)CSC23CCN(C(=O)Nc2ccc(C)cc2)CC3)cc1,"inconclusive: 11.2 µM [inhibitor, full curve]",–
CC(=O)N1CCN(Cc2ccc(-c3cnc4c(OCc5ccccc5)nccn34)cc2)CC1,"inconclusive: 89.1 µM [inhibitor, single point]",–
FC(F)(F)c1ccc2nc([C@H]3CCN(CC4CC4)C3)[nH]c2c1,active: 28.2 µM,–
C[C@H]1CCCN1C(=O)c1nnc(CNCc2ccc3c(c2)OCO3)n1-c1cccnc1,–,inactive: -4.2% [at 172 µM]

Structure (SMILES),Potency,"activity change, negative = inhibition"
CN(Cc1ccc(-c2ccccc2)cc1)C(=O)C(C)(C)C,active: 35.5 µM,–
O=C(NCC1CCOCC1)Nc1cccc(Cl)c1,"inconclusive: 50.1 µM [inhibitor, partial curve, poor fit]",–
C[C@]1(CO)[C@H]2Cc3sc(NC(=O)c4ccc(F)cc4)nc3[C@@H](CC(=O)Nc3ccccc3)[C@]2(C)CC[C@H]1O,"inconclusive: 44.7 µM [inhibitor, partial curve]",–
COCCN1C(=O)c2ccccc2C(C(=O)Nc2nc3ccccc3[nH]2)C12CCCCC2 (centres undefined),–,inactive: -0.718%
CCC(=O)NCCC1CCN(C(=O)Nc2ccc(C)cc2)CC1,active: 12.6 µM,–
Cc1cc(C)c(CNC(=O)c2cc(-c3ccc(CN(C)C)cc3)cc3ncn(C)c23)c(=O)[nH]1,"inconclusive: 44.7 µM [inhibitor, partial curve]",–
O=C(c1cccs1)N1CCC(O)(c2ccccc2)[C@H](N2CCCC2)C1 (some centres undefined),"inconclusive: 50.1 µM [inhibitor, partial curve, poor fit]",–
O=C(NCc1ccc2c(c1)OCO2)c1noc(-c2ccc(F)cc2)n1,"inconclusive: 50.1 µM [inhibitor, partial curve, poor fit]",–
Cc1cc(C)cc(NC(=O)C2CCN(C(=O)c3ncn4c3COC(c3ccc(F)cc3)C4)CC2)c1 (centres undefined),"inconclusive: 44.7 µM [inhibitor, partial curve]",–
COc1cccc(CCC(=O)NCCn2ccn3nc(-c4cccc(OC)c4)cc3c2=O)c1,active: 8.91 µM,–
Cc1ccc(NC(=O)c2ccc3c(c2)N(C)C2CCCN2C3=O)cc1F (centres undefined),active: 1.26 µM,–
O=C(NC[C@H]1O[C@H](Cc2cc(-c3ccc(F)cc3)on2)CC[C@@H]1O)c1ccc(F)cc1,active: 39.8 µM,–
Cn1ccc2c(C(=O)NCc3cccnc3)nc(-c3ccncc3)cc21,"inconclusive: 0.708 µM [inhibitor, full curve]",–
O=C(Nc1ccc2c(c1)OCO2)c1cccc2c1CCN2C(=O)Nc1ccc(F)cc1,active: 0.708 µM,–
COc1ccc(C(=O)N[C@@H]2C=C[C@@H](c3c(C)nn(Cc4ccccc4)c3C)C2)cc1,"inconclusive: 126 µM [inhibitor, single point]",–
O=C1COc2ccc(OCc3ccccc3)nc2CN1Cc1ccc(F)cc1,"inconclusive: 126 µM [inhibitor, single point]",–
CCc1nc(-c2c3n(c(=O)n(CC(=O)c4ccc(Cl)cc4)c2=O)CCCC3)no1,"inconclusive: 39.8 µM [inhibitor, partial curve]",–
COc1cccc(CCC2CCCN(C(=O)c3ccoc3C)C2)c1 (centres undefined),–,inactive: -15.9%
Cc1nn(-c2ccccn2)c(C)c1[C@@H]1C=C[C@@H](NC(=O)NCc2ccccc2)C1,"inconclusive: 50.1 µM [inhibitor, partial curve]",–
COc1ccc(C(=O)N2CCCC(n3cc(-c4nc(-c5ccccc5)no4)nn3)C2)cc1 (centres undefined),"inconclusive: 44.7 µM [inhibitor, full curve]",–
COc1ccc(-c2noc([C@@H]3CCCN3C(=O)c3cc(Cl)ccc3OC)n2)cc1,–,inactive: -5.06%
Cc1ccc(NC(=O)c2ccc3c(c2)N(C)C2CCCCCN2C3=O)cc1 (centres undefined),"inconclusive: 31.6 µM [inhibitor, partial curve]",–
CC(C)C(=O)N[C@H]1C[C@@H](Cc2cc(COc3ccccc3)on2)C1(C)C,"inconclusive: 8.91 µM [inhibitor, partial curve, poor fit]",–

Structure (SMILES),Potency,"activity change, negative = inhibition"
CSCC(=O)N[C@H]1CCN2C(=O)c3cc(-c4ccc(Cl)cc4)ccc3NC(=O)[C@H]12,"inconclusive: 70.8 µM [inhibitor, partial curve]",–
Cc1cnc(CC2CCNC2)n1C(C)C (centres undefined),–,inactive: -15.5%
CN(C)c1cccc(C(=O)N2CCC(c3n[nH]c(=O)n3-c3ccccc3)CC2)c1,active: 31.6 µM,–
COc1ccc(NC(=O)N2Cc3[nH]cnc3C[C@H]2c2nc(-c3ccc(C(F)(F)F)cc3)no2)cc1,"inconclusive: 79.4 µM [inhibitor, single point]",–
COc1ccc(-c2cc(N3CCCC(NC(=O)c4cccc(NC(C)=O)c4)C3)n[nH]2)cc1 (centres undefined),active: 28.2 µM,–
Cc1cccc(-c2noc([C@@H]3Cc4nc[nH]c4CN3C(=O)CC(C)(C)CC(=O)O)n2)c1,"inconclusive: 112 µM [inhibitor, partial curve]",–
Cc1cc(C)cc(C(=O)N2CCC(n3cc(-c4nc(-c5ccccc5)no4)nn3)C2)c1 (centres undefined),"inconclusive: 35.5 µM [inhibitor, partial curve]",–
CC(Cc1ccc2c(c1)OCO2)CN1CCC(CO)(CN2CCCC2)CC1 (centres undefined),–,inactive: -6.7%
O=C1NCCCCCCN(Cc2ccncc2)[C@@H]2CN(C(=O)C3CCCCC3)CC[C@@H]12,–,inactive: -12.2%
OC[C@@H]1CN(Cc2ccc(F)cc2)C[C@H]1c1nc(-c2ccncc2)no1,"inconclusive: 50.1 µM [inhibitor, partial curve]",–
O=C1CC2(CCN(C(=O)c3ccc4c(c3)OCO4)CC2)CN1CC1CCCO1 (centres undefined),–,inactive: -7.47%
CCOc1ccccc1CNC(=O)C1CCN(C(=O)c2ncn3c2COC(c2ccccc2)C3)CC1 (centres undefined),active: 3.98 µM,–
C[C@@H]1CN(C(=O)C2(N3C[C@@H](C)O[C@@H](C)C3)Cc3ccccc3C2)C[C@H](C)O1,–,inactive: -9.22%
CCc1cccc2c(C(CC(=O)NCCc3ccc(OC)c(OC)c3)c3ccccc3OC)c[nH]c12 (centres undefined),–,inactive: -25.4%
Cc1ccc2[nH]c(=O)c(CCC(=O)N3CCCCC3)cc2c1,active: 39.8 µM,–
CN1CCC(NC(=O)c2cccc3c2CCN3C(=O)Nc2ccccc2)CC1,active: 22.4 µM,–
Clc1cc(N2CCC(N3CCOCC3)CC2)n2nccc2n1,–,inactive: -4.16% [at 172 µM]
CNC(=O)CCn1ncc2cc(OCc3ccccc3-c3ccc(F)cc3)ccc21,"inconclusive: 112 µM [inhibitor, partial curve, poor fit]",–
O=C(Cc1ccc(F)cc1)NCCn1ccn2nc(-c3ccc(F)cc3)cc2c1=O,"inconclusive: 3.55 µM [inhibitor, full curve, poor fit]",–
O=C1Nc2ccc(-c3ccc(F)cc3F)cc2C(=O)N2CC[C@H](NC(=O)N3CCOCC3)[C@@H]12,"inconclusive: 50.1 µM [inhibitor, partial curve]",–
Cn1cc(CNc2ccc(-c3nc(CCCc4ccccc4)no3)cn2)cn1,active: 39.8 µM,–
O=C1CCC2(CNC(=O)c3cccnc3)CCCC=C2N1 (centres undefined),"inconclusive: 100 µM [inhibitor, single point]",–
Cc1ccc(-c2ncc(NC(=O)Cc3ccccc3C)cn2)cc1,"inconclusive: 14.1 µM [inhibitor, full curve]",–
